In PubChem BioAssay AID504339 (National Center for Advancing Translational Sciences (NCATS), 2011):
Among all 390,000 compounds or so, about 17,000 (4.4%) were called active. This list was built around the results that the source calls inconclusive (neither active nor inactive); the mix of calls is not that of the screen. Calls come from the whole dose curve; as a rule, active = well fitted inhibition curve with a large enough effect; inconclusive = small, poorly fitted or top-dose-only effect; inactive = no such curve, though single readings can be large or run the other way. A potency beside an inconclusive call is a rough fit, not a confirmed value.

Molecular target: Lysine-specific demethylase 4A (Homo sapiens) (UniProt O75164)
Chain of UniProt O75164 (O75164 whole entry, looked up, the tested form may be a part): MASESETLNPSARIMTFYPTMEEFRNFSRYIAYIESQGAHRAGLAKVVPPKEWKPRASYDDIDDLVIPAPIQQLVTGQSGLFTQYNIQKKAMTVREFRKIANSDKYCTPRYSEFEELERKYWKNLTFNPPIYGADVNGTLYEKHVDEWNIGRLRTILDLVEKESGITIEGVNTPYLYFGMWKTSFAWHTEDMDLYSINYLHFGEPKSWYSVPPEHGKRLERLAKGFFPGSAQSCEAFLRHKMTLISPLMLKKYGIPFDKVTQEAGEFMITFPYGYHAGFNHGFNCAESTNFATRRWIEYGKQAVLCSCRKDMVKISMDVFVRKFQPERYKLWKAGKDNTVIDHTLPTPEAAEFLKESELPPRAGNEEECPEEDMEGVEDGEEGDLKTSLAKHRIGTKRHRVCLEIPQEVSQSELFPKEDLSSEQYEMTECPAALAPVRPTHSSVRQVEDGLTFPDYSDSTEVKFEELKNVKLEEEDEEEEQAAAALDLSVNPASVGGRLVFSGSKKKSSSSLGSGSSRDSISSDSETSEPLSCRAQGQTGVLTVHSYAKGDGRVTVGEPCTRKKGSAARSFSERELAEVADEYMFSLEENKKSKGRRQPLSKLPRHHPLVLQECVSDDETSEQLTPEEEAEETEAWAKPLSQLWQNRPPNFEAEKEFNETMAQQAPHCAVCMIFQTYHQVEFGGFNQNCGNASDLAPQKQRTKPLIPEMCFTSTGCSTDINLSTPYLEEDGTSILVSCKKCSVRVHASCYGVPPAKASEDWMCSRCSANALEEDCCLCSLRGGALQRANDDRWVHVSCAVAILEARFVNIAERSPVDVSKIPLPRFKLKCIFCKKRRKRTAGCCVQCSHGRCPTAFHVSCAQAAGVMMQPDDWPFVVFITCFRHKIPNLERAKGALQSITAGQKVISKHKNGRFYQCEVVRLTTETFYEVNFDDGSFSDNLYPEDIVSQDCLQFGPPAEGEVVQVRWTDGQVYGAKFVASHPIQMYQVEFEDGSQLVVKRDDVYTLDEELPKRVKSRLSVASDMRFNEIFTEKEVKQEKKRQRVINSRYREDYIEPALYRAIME
Assay: qHTS Assay for Inhibitors of JMJD2A-Tudor Domain; note: nearly all actives have a fitted effect of over 50% in size
Conditions: AlphaScreen JMJD2A-Tudor / H3K4me3 peptide binding; series mostly up to 114 µM
Potency is the fitted concentration of half-maximal effect; tags give direction and shape of the fitted curve.

| SMILES | Potency |
| --- | --- |
| CCc1ccc(Nc2n[n+](-c3ccccc3)c(-c3cc(OC)c(OC)cc3Br)s2)cc1 | active: 79.4 µM |
| COc1ccc(NC(=O)CCC2CCCCC2)cc1S(=O)(=O)N1CCCCC1 | inactive |
| CCn1c(CN2CCN(c3ccc(Cl)cc3)CC2)nc2ccccc21 | inconclusive: 56.2 µM [inhibitor, partial curve] |
| COc1ccc(CC(=O)Nc2cc(S(=O)(=O)N3CCCC3)ccc2Cl)c(OC)c1 | inactive |
| N#CCSc1ncnc2sc3c(c12)CCC3 | inconclusive: 22.4 µM [inhibitor, partial curve] |
| COc1ccccc1N/N=C/c1ccc2c(c1)OCO2 | inconclusive: 50.1 µM [inhibitor, partial curve, poor fit] |
| CCOc1ccc(C2c3c(oc4ccccc4c3=O)C(=O)N2CCCN2CCOCC2)cc1 (stereo not given) | inactive |
| O=[N+]([O-])c1ccc(S(=O)(=O)NN=Cc2ccc(Cl)c(Cl)c2)cc1 | inconclusive: 79.4 µM [inhibitor, partial curve] |
| COc1ccc(N2CCN(C(=O)CSc3nc(-c4ccc(C(C)C)cc4)no3)CC2)cc1 | inactive |
| COC(=O)[C@@]1(Cc2ccc(F)cc2)[C@H]2c3cc(C(=O)N(C)C)n(CCc4ccc(OC)c(Br)c4)c3C[C@H]2CN1C(=O)c1ccccc1 | inconclusive: 50.1 µM [inhibitor, partial curve] |
| O=C(Nc1cc(C(F)(F)F)ccc1Cl)C(Sc1cccc[n+]1[O-])c1ccccc1 (stereo not given) | inconclusive: 89.1 µM [inhibitor, single point] |
| Brc1cccc(OCCCCN2CCCCC2)c1 | active: 50.1 µM |
| CCc1cc2ccc(OC)cc2nc1SCC(=O)N1CCN(C(=O)c2ccco2)CC1 | inconclusive: 56.2 µM [inhibitor, partial curve, poor fit] |
| Cc1cn2c(=O)cc(COC(=O)c3ccc(NC(=O)c4ccc(F)cc4)cc3)nc2s1 | inactive |
| CCc1ccc(-c2cc(C)no2)cc1S(=O)(=O)NCCCN1CCN(c2ccccc2)CC1 | inconclusive: 28.2 µM [inhibitor, partial curve] |
| COc1cc(/C=N/NC(=O)c2cc(-c3ccco3)nc3ccccc23)cc(OC)c1O | inconclusive: 89.1 µM [inhibitor, partial curve] |
| COc1ccc(C2c3[nH]c4ccccc4c3CCN2C(=O)CCC2CCCC2)cc1 (stereo not given) | inconclusive: 15.8 µM [inhibitor, partial curve] |
| COc1ccc(S(=O)(=O)NCCc2ccccc2)cc1 | inactive |
| COC(=O)c1ccccc1NC(=O)c1noc2c1CCC2 | active: 50.1 µM |
| CCC(Sc1nc2c(sc3ccccc32)c(=O)n1CCc1ccc(OC)c(OC)c1)C(=O)N(CC)CC (stereo not given) | inconclusive: 63.1 µM [inhibitor, partial curve] |
| COc1ccc(CNC(=O)[C@@H](C)NC(=O)[C@@H]2Cc3ccccc3CN2)cc1 | inactive |
| COc1ccccc1C(=O)NC1CCN(C(=O)Nc2ccc(F)cc2)CC1 | inactive |
| COc1ccc(C(=O)NCc2nnc(SC)n2C2CCCCC2)cc1 | inactive |

| SMILES | Potency |
| --- | --- |
| CC(C)c1ccc(-c2nn[nH]n2)cc1 | inconclusive: 89.1 µM [inhibitor, partial curve] |
| COc1ccc2c(CNCCc3ccc(SC)cc3)c(C(=O)O)n(Cc3ccc(F)cc3)c2c1 | inconclusive: 17.8 µM [inhibitor, full curve] |
| CC1CC(C)CN(CCCOc2ccccc2[N+](=O)[O-])C1 (stereo not given) | active: 31.6 µM |
| O=C1NCC(c2ccccc2)C1C(=O)N/N=C\c1ccc(-c2cccc(Cl)c2Cl)o1 (stereo not given) | inconclusive: 56.2 µM [inhibitor, partial curve] |
| O=S(=O)(c1ccc(F)cc1)N1CCN(Cc2ccccc2C(F)(F)F)CC1 | inconclusive: 39.8 µM [inhibitor, partial curve, poor fit] |
| Cn1c(SCC(=O)N2c3ccccc3Sc3ccccc32)nc2ccccc21 | inconclusive: 89.1 µM [inhibitor, partial curve, poor fit] |
| Cc1ccc(NS(=O)(=O)c2ccc3c(c2)N(C)CCO3)cc1C | inconclusive: 56.2 µM [inhibitor, partial curve] |
| Cc1cn(C)c(CC(=O)NCc2cccc(Cl)c2)c1C(=O)O | inactive |
| O=C(NCc1cccnc1)Nc1cccc(Cl)c1Cl | inactive |
| Cc1ccc2nc(C)cc(Nc3ccc4c(c3)OCCO4)c2c1 | inactive |
| O=C(CSc1nnnn1-c1ccc(F)cc1)NC1CCCCC1 | active: 79.4 µM |
| COc1cccc(C(c2nnnn2Cc2ccc(F)cc2)N2CCC(C(N)=O)CC2)c1OC (stereo not given) | inconclusive: 79.4 µM [inhibitor, partial curve] |
| CC(C)C[C@H](NC(=O)c1[nH]cnc1C(=O)N[C@H](C)c1ccccc1)C(=O)OC(C)(C)C | inconclusive: 50.1 µM [inhibitor, partial curve] |
| Cc1ccnc(SCC(=O)c2ccc(Br)cc2)c1C#N | inconclusive: 25.1 µM [inhibitor, single point] |
| CCN1CCN(c2ncc3c(n2)CCN(Cc2cc(Br)cs2)C3)CC1 | active: 79.4 µM |
| Cc1cccc(C)c1NC(=O)C(=O)NCC1CCCN1S(=O)(=O)c1cccs1 (stereo not given) | inactive |
| CCC1CSC(Nc2ccc(C(=O)/C=C/c3ccc(Oc4ccccc4)cc3)cc2)=N1 (stereo not given) | inconclusive: 20 µM [inhibitor, partial curve] |
| COc1ccccc1NC(=O)c1cc2cc(Br)ccc2cc1O | inconclusive: 63.1 µM [inhibitor, partial curve, poor fit] |
| Cc1ccc(-n2cc(CN3CCNC(=O)CC3)c(-c3cccc(C)c3)n2)cc1 | inconclusive: 14.1 µM [inhibitor, full curve] |
| O=C(CSc1ccsc1[N+](=O)[O-])N1CCN(c2ccc(Cl)cc2)CC1 | inconclusive: 11.2 µM [inhibitor, full curve] |
| Cc1onc(-c2ccccc2)c1C(=O)Nc1nnc(COc2ccc(Cl)cc2)s1 | inconclusive: 44.7 µM [inhibitor, partial curve] |
| Oc1ccc(-c2nc(-c3ccc(F)cc3)c(-c3ccncc3)[nH]2)cc1 | inconclusive: 50.1 µM [inhibitor, partial curve] |
